Article PMC7616460, “Skraban-Deardorff intellectual disability syndrome-associated mutations in WDR26 impair CTLH E3 complex assembly” (FEBS letters, 2024)
These are yes or no findings as the source states them, for the method shown. In cells and extracts the contact can be indirect. Some entries that bind do so weakly or less than the wild type. Tags and fused reporters may be left off the sequences shown.

The chains behind the UniProt entries cited, without tags or fusion partners. Where a name states a change or a piece, a line headed by the entry shows the natural chain unless it says otherwise. A line that says so, or that is headed by a name, gives the form on record, which may keep a tag or linker. Residues count along the entry.
UniProt Q9H7D7: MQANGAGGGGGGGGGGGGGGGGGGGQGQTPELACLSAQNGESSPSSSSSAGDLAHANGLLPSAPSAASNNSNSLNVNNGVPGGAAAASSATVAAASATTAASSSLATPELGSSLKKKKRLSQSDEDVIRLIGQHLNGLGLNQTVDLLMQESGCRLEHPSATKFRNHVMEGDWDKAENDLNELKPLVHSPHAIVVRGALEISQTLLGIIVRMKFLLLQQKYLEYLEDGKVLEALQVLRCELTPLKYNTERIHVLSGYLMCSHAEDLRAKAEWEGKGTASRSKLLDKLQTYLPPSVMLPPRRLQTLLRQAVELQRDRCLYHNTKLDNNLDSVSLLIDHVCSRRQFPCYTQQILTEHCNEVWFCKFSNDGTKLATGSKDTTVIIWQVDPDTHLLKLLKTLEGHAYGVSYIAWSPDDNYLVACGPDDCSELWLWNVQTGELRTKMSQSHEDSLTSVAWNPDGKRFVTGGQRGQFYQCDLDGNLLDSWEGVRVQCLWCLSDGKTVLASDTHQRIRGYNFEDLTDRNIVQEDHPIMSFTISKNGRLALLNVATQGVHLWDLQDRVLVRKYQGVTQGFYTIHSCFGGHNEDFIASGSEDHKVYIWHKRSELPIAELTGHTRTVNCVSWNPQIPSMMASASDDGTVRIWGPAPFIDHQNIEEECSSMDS
HA-tagged WDR26 variant Ind23 (Trp359*): residues 1-358 of Q9H7D7
HA-tagged WDR26 variant Ind19 (Gln348*): residues 1-347 of Q9H7D7
HA-tagged WDR26 variant Ind6 (Asp284Asn) (Q9H7D7, form named): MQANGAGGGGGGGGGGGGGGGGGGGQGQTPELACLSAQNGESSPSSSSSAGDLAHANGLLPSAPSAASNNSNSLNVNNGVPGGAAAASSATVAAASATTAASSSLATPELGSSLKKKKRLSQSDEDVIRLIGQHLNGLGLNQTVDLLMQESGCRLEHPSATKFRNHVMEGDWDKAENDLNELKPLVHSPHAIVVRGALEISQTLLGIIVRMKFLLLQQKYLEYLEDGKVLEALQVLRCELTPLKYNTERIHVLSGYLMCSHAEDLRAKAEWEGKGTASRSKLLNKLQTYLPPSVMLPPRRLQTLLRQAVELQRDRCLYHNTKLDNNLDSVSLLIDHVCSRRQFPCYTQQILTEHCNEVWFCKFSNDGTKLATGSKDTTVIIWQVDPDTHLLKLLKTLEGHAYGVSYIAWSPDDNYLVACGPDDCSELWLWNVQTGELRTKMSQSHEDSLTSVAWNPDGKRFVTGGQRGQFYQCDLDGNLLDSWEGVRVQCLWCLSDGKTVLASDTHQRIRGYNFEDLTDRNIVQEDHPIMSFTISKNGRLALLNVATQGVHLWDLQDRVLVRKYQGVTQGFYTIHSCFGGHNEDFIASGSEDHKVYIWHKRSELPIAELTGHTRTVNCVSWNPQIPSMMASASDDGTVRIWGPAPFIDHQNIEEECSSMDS
HA-tagged WDR26 variant Ind9 (Ser254Arg) (Q9H7D7, form named): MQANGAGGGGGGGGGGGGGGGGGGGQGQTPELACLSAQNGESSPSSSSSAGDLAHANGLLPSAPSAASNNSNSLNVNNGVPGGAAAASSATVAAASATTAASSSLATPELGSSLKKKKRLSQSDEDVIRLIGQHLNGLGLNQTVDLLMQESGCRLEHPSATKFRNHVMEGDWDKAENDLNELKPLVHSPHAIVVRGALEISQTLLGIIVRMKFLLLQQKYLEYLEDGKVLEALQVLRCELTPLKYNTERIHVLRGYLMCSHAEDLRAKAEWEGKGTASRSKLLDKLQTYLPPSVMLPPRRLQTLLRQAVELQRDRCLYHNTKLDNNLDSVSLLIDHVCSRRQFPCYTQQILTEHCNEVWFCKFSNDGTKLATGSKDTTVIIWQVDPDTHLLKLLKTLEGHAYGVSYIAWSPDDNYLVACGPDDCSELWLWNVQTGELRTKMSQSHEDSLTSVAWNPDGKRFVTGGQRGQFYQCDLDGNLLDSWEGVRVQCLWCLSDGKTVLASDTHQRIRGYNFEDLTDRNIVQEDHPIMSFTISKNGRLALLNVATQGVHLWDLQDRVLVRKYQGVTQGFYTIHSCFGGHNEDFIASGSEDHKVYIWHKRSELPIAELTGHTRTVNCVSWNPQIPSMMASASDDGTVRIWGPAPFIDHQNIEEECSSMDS
HA-tagged WDR26 variant Ind21 (Arg510Gln) (Q9H7D7, form named): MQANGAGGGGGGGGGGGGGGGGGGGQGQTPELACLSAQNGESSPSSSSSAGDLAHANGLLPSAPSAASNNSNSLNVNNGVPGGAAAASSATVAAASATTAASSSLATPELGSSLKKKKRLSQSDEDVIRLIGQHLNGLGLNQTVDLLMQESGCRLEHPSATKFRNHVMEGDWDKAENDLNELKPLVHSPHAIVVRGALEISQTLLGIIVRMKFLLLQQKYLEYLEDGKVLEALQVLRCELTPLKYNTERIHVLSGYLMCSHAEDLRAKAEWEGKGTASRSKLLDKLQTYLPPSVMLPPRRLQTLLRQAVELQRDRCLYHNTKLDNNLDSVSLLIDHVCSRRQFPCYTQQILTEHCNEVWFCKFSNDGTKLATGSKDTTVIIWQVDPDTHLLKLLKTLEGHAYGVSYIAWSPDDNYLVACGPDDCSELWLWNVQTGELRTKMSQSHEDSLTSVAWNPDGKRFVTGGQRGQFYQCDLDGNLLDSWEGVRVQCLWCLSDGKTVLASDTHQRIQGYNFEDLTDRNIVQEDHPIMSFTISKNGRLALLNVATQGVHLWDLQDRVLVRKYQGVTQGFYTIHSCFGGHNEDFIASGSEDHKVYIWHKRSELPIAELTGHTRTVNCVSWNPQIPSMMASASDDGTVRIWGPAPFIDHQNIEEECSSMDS

Legend:
Assay in all cases: co-IP; HEK293 Flp-In T-Rex WDR26-/- cells transiently co-transfected with HA-WDR26 variants and 3xFlag-HBP1; anti-HA agarose beads 2 h 4 °C; immunoblot
[1] = target: HA-tagged WDR26 variant Ind6 (Asp284Asn) (human) (UniProt Q9H7D7)
[2] = target: HA-tagged WDR26 (wildtype, isoform 1) (human) (UniProt Q9H7D7)
[3] = target: HA-tagged WDR26 variant Ind9 (Ser254Arg) (human) (UniProt Q9H7D7)
[4] = target: HA-tagged WDR26 variant Ind23 (Trp359*) (human) (UniProt Q9H7D7)
[5] = target: HA-tagged WDR26 variant Ind21 (Arg510Gln) (human) (UniProt Q9H7D7)
[6] = target: HA-tagged WDR26 variant Ind19 (Gln348*) (human) (UniProt Q9H7D7)

B1: 3xFlag-tagged HMG-Box Transcription Factor 1 (protein, UniProt O60381 1-514)
chain: MVWEVKTNQMPNAVQKLLLVMDKRASGMNDSLELLQCNENLPSSPGYNSCDEHMELDDLPELQAVQSDPTQSGMYQLSSDVSHQEYPRSSWNQNTSDIPETTYRENEVDWLTELANIATSPQSPLMQCSFYNRSSPVHIIATSKSLHSYARPPPVSSSSKSEPAFPHHHWKEETPVRHERANSESESGIFCMSSLSDDDDLGWCNSWPSTVWHCFLKGTRLCFHKGSNKEWQDVEDFARAEGCDNEEDLQMGIHKGYGSDGLKLLSHEESVSFGESVLKLTFDPGTVEDGLLTVECKLDHPFYVKNKGWSSFYPSLTVVQHGIPCCEVHIGDVCLPPGHPDAINFDDSGVFDTFKSYDFTPMDSSAVYVLSSMARQRRASLSCGGPGGQDFARSGFSKNCGSPGSSQLSSNSLYAKAVKNHSSGTVSATSPNKCKRPMNAFMLFAKKYRVEYTQMYPGKDNRAISVILGDRWKKMKNEERRMYTLEAKALAEEQKRLNPDCWKRKRTNSGSQQH
binding [1]: binds
binding [2]: binds
binding [3]: no binding
binding [4]: no binding
binding [5]: no binding
binding [6]: no binding
